Reference: PubChem BioAssay AID686979 (National Center for Advancing Translational Sciences (NCATS), 2013)
About 50,000 (12%) of roughly 420,000 compounds were called active. The shares of active, inactive and inconclusive entries below differ from those in the screen. Calls come from the whole dose curve; as a rule, active = well fitted inhibition curve with a large enough effect; inconclusive = small, poorly fitted or top-dose-only effect; inactive = flat fitted curve, though single readings scatter. Potencies of inconclusive entries are left out as doubtful fits.

Assay: qHTS for Inhibitors of human tyrosyl-DNA phosphodiesterase 1 (TDP1): qHTS in cells in presence of CPT; note: nearly all actives have a fitted effect of over 55% in size
Conditions: chicken DT40 Tdp1-/-;hTDP1 cells + 20 nM CPT, ATP luminescence, 48 h; activity change, negative = growth inhibition: at 46.2 µM (top of the series) unless noted
In short: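 Chicken DT40 Tdp1-/- cells stably complemented with human TDP1 were seeded at 400 cells/well in medium containing 20 nM camptothecin, exposed to pin-transferred compounds, and grown at 37 °C for at least 48 hr. Viability was read as ATP luminescence.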
% is set by controls: 0 for no effect and ±100 for the full control effect; potency is the fitted concentration of half-maximal effect; tags give direction and shape of the fitted curve.

Row | Structure (SMILES) | Potency | activity change, negative = growth inhibition
1 | Cc1ccccc1NC(=O)c1nc[nH]c1C(=O)NCc1ccccc1 | inconclusive [inhibitor, single point] | –
2 | O=C(CCSc1nc(-c2ccccc2)c(-c2ccccc2)o1)N1CCCCC1 | inconclusive [inhibitor, single point] | –
3 | O=C(CNC(=O)c1ccco1)N/N=C/c1cc(Br)ccc1O | active: 2.91 µM | –
4 | Cc1ccccc1Nc1nc(N)nc(C)c1Br | inconclusive [inhibitor, partial curve, poor fit] | –
5 | Cc1c(Cl)cccc1Nc1nc2ccc(C(=O)c3ccccc3)cc2n2cnnc12 | inconclusive [inhibitor, single point] | –
6 | COc1ccc(CCN(C(=O)C(F)(F)F)C(C(=O)NC2CCCCC2)c2cccs2)cc1 (stereo not drawn) | active: 7.31 µM | –
7 | Cc1ccc(CNC(=O)C(=O)NCCC2=CCCCC2)cc1 | inconclusive [inhibitor, partial curve] | –
8 | O=C1C=C(c2cccc(Cl)c2O)C[C@@H](c2ccc(Cl)cc2)C1 | inconclusive [inhibitor, partial curve] | –
9 | O[C@H]1CN(Cc2cccs2)[C@@H](c2ccccc2)C[C@@H]1n1cc(-c2ccc(F)cc2)nn1 | inconclusive [inhibitor, single point] | –
10 | COc1ccc(CNC(=O)CN2C(=O)CC(c3ccccc3)=Nc3ccccc32)cc1 | inconclusive [inhibitor, single point] | –
11 | CC1CN(C(=O)N2CCC(C(=O)NCCCc3ccccc3)CC2)c2ccccc2O1 (stereo not drawn) | active: 20.6 µM | –
12 | Cc1c(NC(=O)CSc2ncnc3c2cnn3-c2ccccc2)c(=O)n(-c2ccccc2)n1C | inconclusive [inhibitor, single point] | –
13 | Nc1nonc1-n1nnc(C(=O)N/N=C/c2ccccn2)c1CNc1ccccc1 | inconclusive [inhibitor, single point] | –
14 | Cc1ccc(S(=O)(=O)Cn2nnnc2C(C(C)C)N2CCc3ccccc3C2)cc1 (stereo not drawn) | inconclusive [inhibitor, single point] | –
15 | CCOc1ccc(CN2CCN(Cc3cccn3-c3cccnc3)CC2CCO)cc1 (stereo not drawn) | inconclusive [inhibitor, single point] | –
16 | COc1ccc2c(c1)Cc1sc(NC(=O)c3cccc(Br)c3)nc1-2 | inconclusive [inhibitor, single point] | –
17 | Cc1cc(OCCn2ccnc2)cc(C)c1Cl | – | inactive: -27.9%
18 | CC(=O)N1CCc2c(sc3c2c(=O)n(Cc2ccccc2)c(=O)n3Cc2cc(C)ccc2C)C1 | active: 16.4 µM | –
19 | CCOc1nc(-c2ccccc2)ccc1-c1noc(COc2ccccc2)n1 | inconclusive [inhibitor, partial curve, poor fit] | –
20 | Cn1c(OCc2cccnc2)nc2c1c(=O)n(Cc1ccc(F)cc1)c(=O)n2C | active: 20.6 µM | –
21 | CSc1nc2ccc(NC(=O)c3ccc(Cl)s3)cc2s1 | – | inactive: -28.6%
22 | Clc1cccc(-c2cc3nc4c(c(N5CCN(c6cnccn6)CC5)n3n2)CCCC4)c1 | active: 23.1 µM | –
23 | CCN(c1ccccc1)S(=O)(=O)c1ccc(C(=O)N2CCCC(C(F)(F)F)C2)cc1 (stereo not drawn) | active: 8.2 µM | –

Row | Structure (SMILES) | Potency | activity change, negative = growth inhibition
24 | CCOc1ccc(Nc2oc(/C=C/c3cccc(OC)c3)nc2C#N)cc1 | inconclusive [inhibitor, single point] | –
25 | COc1ccc(OC)c(C(=O)CSc2nnc(Cc3cccs3)n2C)c1 | – | inactive: 0.179%
26 | Cc1cnc(SCc2ccccn2)nc1C1CCCN(C(=O)c2coc3c2C(=O)CCC3)C1 (stereo not drawn) | inconclusive [inhibitor, single point] | –
27 | COc1ccc(OC)c(CNC(=O)C2CCCN(S(=O)(=O)N3CCC(C)CC3)C2)c1 (stereo not drawn) | inconclusive [inhibitor, single point] | –
28 | O=C(NCc1ccco1)N1c2ccccc2Sc2ccccc21 | inconclusive [inhibitor, partial curve] | –
29 | Cc1ccc2nc(/C=C/c3ccc(N(C)C)cc3)ccc2c1 | active: 12.6 µM | –
30 | Cc1cccc(NC(=O)c2sc3nc(N)c(C#N)cc3c2N)c1 | inconclusive [inhibitor, single point] | –
31 | CCn1c(C)c(C(C)=O)c(N2CCN(c3cccc(Cl)c3)CC2)nc1=S | – | inconclusive: -32.5% [inhibitor]
32 | Cc1cc(C)nc(N2CCC(C(=O)NCCc3ccc(F)cc3)CC2)n1 | active: 16.4 µM | –
33 | CC(C)NC(=O)C1(C)CCN1C(=O)c1ccccc1Oc1ccccc1 (stereo not drawn) | inconclusive [inhibitor, single point] | –
34 | Cc1ccc(-c2nc3ccc(C)cn3c2Cc2cccc(Cl)c2)cc1 | inconclusive [inhibitor, single point] | –
35 | CC(=O)Oc1ccc(C(=O)Nc2ccccc2C(=O)Nc2cccc(C(=O)O)c2)cc1 | – | inactive: 2.3%
36 | CN(C)c1nc(N/N=C/c2c[nH]c3ccccc23)nc(N2CCOCC2)n1 | inconclusive [inhibitor, single point] | –
37 | O=C1CCN(CCCN2CCC(=O)NC2=S)C(=S)N1 | – | inactive: 1.73%
38 | CCCCCn1c(CCNC(=O)c2cccc(C)c2)nc2ccccc21 | active: 20.6 µM | –
39 | Cc1sc(NC(=O)c2ccco2)c(CN2CCN(Cc3ccccc3)CC2)c1C | active: 11.6 µM | –
40 | COc1ccc(-n2c(CNC(=O)c3cc(OC)c(OC)c(OC)c3)n[nH]c2=S)cc1 | – | inactive: -5.97%
41 | COc1ccc(-c2csc(NC(=O)CS(=O)(=O)c3ccc(F)cc3)n2)cc1OC | inconclusive [inhibitor, single point] | –
42 | Cc1ccc(S(=O)(=O)N2C3CCCCC3O[C@H]2CC(=O)c2cccc3ccccc23)cc1 (stereo partly drawn) | inconclusive [inhibitor, single point] | –
43 | O=C(Nc1ccccc1C(=O)NCCN1CCOCC1)c1cccc([N+](=O)[O-])c1 | inconclusive [inhibitor, partial curve, poor fit] | –
44 | CCC(CC)C(=O)Nc1cccc(C(=O)Nc2nccs2)c1 | inconclusive [inhibitor, single point] | –
45 | C/C(=N\NC(=O)COc1ccccc1[N+](=O)[O-])c1cccs1 | – | inactive: -22.6%
46 | Cc1ccc([C@H]2C[C@@H](O)[C@H](n3cc(-c4ccc(F)cc4)nn3)CN2C(=O)C2CCCCC2)cc1 | inconclusive [inhibitor, single point] | –

Row | Structure (SMILES) | Potency | activity change, negative = growth inhibition
47 | COc1ccc(-c2csc(C(C)(NC(C)=O)c3ccccc3)n2)cc1 (stereo not drawn) | inconclusive [inhibitor, partial curve, poor fit] | –
48 | O=C(CNC(=O)c1ccc(S(=O)(=O)N2CCCC2)cc1)N/N=C/c1ccc(Cl)cc1Cl | inconclusive [inhibitor, single point] | –
49 | Cc1cc(S(=O)(=O)N2CCOCC2)ccc1OCC(=O)NCc1ccccn1 | – | inactive: 9.75%
50 | CN1CCN(C(=S)NC(=O)c2cccc(S(=O)(=O)N(C)C)c2)CC1 | – | inactive: -1.86%
51 | CCSc1nc2c([nH]c3ccccc32)c(=O)n1-c1ccc(F)cc1 | active: 20.6 µM | –
52 | CCCCCCCCCCCC[n+]1ccc(/C=C/c2c[nH]c3ccccc23)c2ccccc21 | active: 2.51 µM | –
53 | CCOC(=O)N1CCC(NC(=O)c2cc(-c3ccc(F)cc3)[nH]c2C)CC1 | inconclusive [inhibitor, single point] | –
54 | N#CC(C#N)=C/C(C#N)=C(/N)N1CCN(c2ccc(Cl)cc2)CC1 | inconclusive [inhibitor, single point] | –
55 | Cc1cc(=O)oc2cc(NC(=O)COc3cccc(C(F)(F)F)c3)ccc12 | inconclusive [inhibitor, partial curve, poor fit] | –
56 | C[C@@H]1[C@H]2CCCC[C@H]2CN(C(=O)OC(C)(C)C)[C@@H]1CC(=O)c1ccccc1 | inconclusive [inhibitor, single point] | –
57 | COc1ccc(CC(=O)OCC(=O)NC2CCCCC2)cc1 | – | inactive: -4.5%
58 | COCCOC(=O)c1[nH]c2c(c1C)C(=O)CC(c1ccco1)C2 (stereo not drawn) | active: 1.03 µM | –
59 | CCOC(=O)/C=C/C(=O)OCC(=O)Nc1c(Cl)cccc1Cl | inconclusive [inhibitor, partial curve] | –
60 | CCc1ccc(CNC(=O)C2CCCN(S(=O)(=O)c3ccc4c(ccn4C)c3)C2)cc1 (stereo not drawn) | active: 20.6 µM | –
61 | CCCCNC(=S)N/N=C/c1sccc1C | active: 0.92 µM | –
62 | COc1ccc(CSCC(=O)Nc2ccc(S(=O)(=O)N3CCCCCC3)cc2)cc1 | inconclusive [inhibitor, single point] | –
63 | O=C1Cc2ccccc2C(=O)N1Cc1ccccc1 | inconclusive [inhibitor, single point] | –
64 | COc1ccc(CNC(=O)COC(=O)[C@H](Cc2c[nH]c3ccccc23)NC(=O)c2cccs2)cc1 | inconclusive [inhibitor, single point] | –
65 | CCCCOc1ccc(CNC(=O)c2ccc3c(c2)N(C)C(=O)C2CCCCN32)cc1 (stereo not drawn) | inconclusive [inhibitor, single point] | –
66 | CCc1cccc(CC)c1NC(=O)C1SC(=Nc2ccccc2C)C(c2nc3ccccc3s2)=C1N (stereo not drawn) | inconclusive [inhibitor, single point] | –
67 | Cc1ccc(-c2cnc3c(c2)C(=O)N([C@H](C)CO)C[C@H](C)[C@@H](CN(C)Cc2ccccc2F)O3)cc1 | inconclusive [inhibitor, single point] | –
68 | Cc1cc(=O)oc2c(C(=O)/C=C\c3cccs3)c(O)ccc12 | inconclusive [inhibitor, single point] | –
